What all share (experiment): Agar dilution on enriched GC agar; resistance determinants by microarray.
A general note: In agar dilution the substance is mixed into plates at graded concentrations.

Compound in one assay: CN(C)[C@@H]1C(O)=C(C(N)=O)C(=O)[C@@]2(O)C(O)=C3C(=O)c4c(O)cccc4[C@@](C)(O)[C@H]3C[C@@H]12 [tetracycline]
Compound in another assay: CC1(C)S[C@@H]2[C@H](NC(=O)Cc3ccccc3)C(=O)N2[C@H]1C(=O)O [benzylpenicillin]
Compound in another assay: CO/N=C(\C(=O)N[C@@H]1C(=O)N2C(C(=O)O)=C(CSc3nc(=O)c(O)nn3C)CS[C@H]12)c1csc(N)n1 [ceftriaxone]
Compound in another assay: CC[C@H]1OC(=O)[C@H](C)[C@@H](O[C@H]2C[C@@](C)(OC)[C@@H](O)[C@H](C)O2)[C@H](C)[C@@H](O[C@@H]2O[C@H](C)C[C@H](N(C)C)[C@H]2O)[C@](C)(O)C[C@@H](C)CN(C)[C@H](C)[C@@H](O)[C@]1(C)O [azithromycin]
Compound in the next assay: CN[C@@H]1[C@H](O)[C@H](NC)[C@H]2O[C@@]3(O)C(=O)C[C@@H](C)O[C@H]3O[C@@H]2[C@H]1O [spectinomycin]

MIC of clinical N. gonorrhoeae isolates (2015-2017) by agar dilution on GC agar with 1% IsoVitaleX (ranges not stated); higher = less susceptible. No active / inactive call per row; the paper counts benzylpenicillin above 1 and ceftriaxone above 0.125 mg/L as resistant (EUCAST). The method is stated for benzylpenicillin and ceftriaxone and assumed for the other drugs. '<=' is inferred from pile-ups at the end values. Isolates are numbered anew.

In general, MIC refers to the lowest concentration found to suppress growth. For “Neisseria gonorrhoeae isolate 415 (blaTEM plasmid: no, gyrA: wild type, mtrR promoter: wild type, parC: wild type, penA: wild type, ponA: wild type, porB: wild type, rpsJ: wild type, tetM plasmid: no)”, the MIC with tetracycline is 0.25 µg/mL; with benzylpenicillin, not above 0.015 µg/mL; with ceftriaxone, not above 0.002 µg/mL; in the assay with azithromycin it was 0.12 µg/mL; with spectinomycin, 32 µg/mL.

Consider “Neisseria gonorrhoeae isolate 506 (blaTEM plasmid: no, gyrA: wild type, mtrR promoter: wild type, parC: wild type, penA: wild type, ponA: wild type, porB: wild type, rpsJ: wild type, tetM plasmid: no)”, for which the MIC in the assay with tetracycline is 0.25 µg/mL; with benzylpenicillin, not above 0.015 µg/mL; with ceftriaxone, not above 0.002 µg/mL; with azithromycin it was 0.12 µg/mL; in the assay with spectinomycin, 32 µg/mL.

Turning to “Neisseria gonorrhoeae isolate 321 (blaTEM plasmid: no, gyrA: wild type, mtrR promoter: wild type, parC: wild type, penA: ins345Asp, ponA: wild type, porB: wild type, rpsJ: wild type, tetM plasmid: no)”, the MIC with tetracycline is 0.12 µg/mL; in the assay with benzylpenicillin it was 0.06 µg/mL; in the assay with ceftriaxone, not above 0.002 µg/mL; with azithromycin, 0.12 µg/mL; with spectinomycin it was 16 µg/mL.

As to “Neisseria gonorrhoeae isolate 403 (blaTEM plasmid: no, gyrA: Phe91, Gly95, mtrR promoter: -35delA, parC: Arg87, Glu91, penA: ins345Asp, ponA: Pro421, porB: Lys 120, Asn 121, rpsJ: Met57, tetM plasmid: no)”, the MIC with tetracycline came out at 2 µg/mL; with benzylpenicillin, 0.5 µg/mL; with ceftriaxone it was 0.016 µg/mL; with azithromycin it was 0.03 µg/mL; with spectinomycin, 32 µg/mL.

Turning to “Neisseria gonorrhoeae isolate 278 (blaTEM plasmid: no, gyrA: wild type, mtrR promoter: wild type, parC: wild type, penA: ins345Asp, ponA: wild type, porB: wild type, rpsJ: Met57, tetM plasmid: no)”, the MIC in the assay with tetracycline was 0.06 µg/mL; with benzylpenicillin it was not above 0.015 µg/mL; with ceftriaxone, not above 0.002 µg/mL; with azithromycin, 1 µg/mL; with spectinomycin it was 64 µg/mL.

Regarding “Neisseria gonorrhoeae isolate 466 (blaTEM plasmid: no, gyrA: wild type, mtrR promoter: wild type, parC: wild type, penA: wild type, ponA: wild type, porB: wild type, rpsJ: wild type, tetM plasmid: no)”, the MIC is 0.12 µg/mL with tetracycline; not above 0.015 µg/mL with benzylpenicillin; not above 0.002 µg/mL with ceftriaxone; 0.06 µg/mL with azithromycin; 16 µg/mL in the assay with spectinomycin.

As for “Neisseria gonorrhoeae isolate 111 (blaTEM plasmid: no, gyrA: wild type, mtrR promoter: wild type, parC: wild type, penA: ins345Asp, ponA: wild type, porB: wild type, rpsJ: wild type, tetM plasmid: no)”, the MIC stood at 0.5 µg/mL with tetracycline; 0.06 µg/mL in the assay with benzylpenicillin; 0.004 µg/mL in the assay with ceftriaxone; 0.015 µg/mL in the assay with azithromycin; 32 µg/mL with spectinomycin.

As to “Neisseria gonorrhoeae isolate 150 (blaTEM plasmid: no, gyrA: Thr91, Gly95, mtrR promoter: -35delA, parC: wild type, penA: ins345Asp, ponA: Pro421, porB: Asn120, Asp121, rpsJ: Met57, tetM plasmid: no)”, the MIC with tetracycline turned out to be 1 µg/mL; with benzylpenicillin it was 0.12 µg/mL; with ceftriaxone, 0.032 µg/mL; in the assay with azithromycin, 0.5 µg/mL; in the assay with spectinomycin, 16 µg/mL.

Consider “Neisseria gonorrhoeae isolate 146 (blaTEM plasmid: no, gyrA: wild type, mtrR promoter: wild type, parC: wild type, penA: wild type, ponA: wild type, porB: wild type, rpsJ: wild type, tetM plasmid: no)”, for which the MIC with tetracycline is 0.25 µg/mL; in the assay with benzylpenicillin, not above 0.015 µg/mL; with ceftriaxone it was not above 0.002 µg/mL; with azithromycin it was 0.12 µg/mL; in the assay with spectinomycin it was 32 µg/mL.

With “Neisseria gonorrhoeae isolate 355 (blaTEM plasmid: no, gyrA: wild type, mtrR promoter: wild type, parC: wild type, penA: ins345Asp, ponA: wild type, porB: wild type, rpsJ: wild type, tetM plasmid: no)”, the MIC with tetracycline is 0.5 µg/mL; with benzylpenicillin it was 0.06 µg/mL; with ceftriaxone, 0.008 µg/mL; with azithromycin, 0.03 µg/mL; in the assay with spectinomycin, 16 µg/mL.

For “Neisseria gonorrhoeae isolate 338 (blaTEM plasmid: no, gyrA: Phe91, Gly95, mtrR promoter: -35delA, parC: Arg87, Glu91, penA: ins345Asp, ponA: Pro421, porB: wild type, rpsJ: Met57, tetM plasmid: no)”, the MIC in the assay with tetracycline was 2 µg/mL; with benzylpenicillin it was 0.5 µg/mL; with ceftriaxone it was 0.008 µg/mL; in the assay with azithromycin it was 0.25 µg/mL; with spectinomycin it was 8 µg/mL.

In the case of “Neisseria gonorrhoeae isolate 178 (blaTEM plasmid: no, gyrA: wild type, mtrR promoter: wild type, parC: wild type, penA: wild type, ponA: wild type, porB: wild type, rpsJ: wild type, tetM plasmid: no)”, the MIC was 0.25 µg/mL with tetracycline; not above 0.015 µg/mL in the assay with benzylpenicillin; not above 0.002 µg/mL with ceftriaxone; 0.12 µg/mL in the assay with azithromycin; 32 µg/mL in the assay with spectinomycin.

For the test system “Neisseria gonorrhoeae isolate 99 (blaTEM plasmid: no, gyrA: Thr91, Gly95, mtrR promoter: wild type, parC: wild type, penA: wild type, ponA: wild type, porB: wild type, rpsJ: wild type, tetM plasmid: yes)”, the MIC was found to be 16 µg/mL with tetracycline; 0.12 µg/mL with benzylpenicillin; 0.008 µg/mL with ceftriaxone; 0.12 µg/mL with azithromycin; 16 µg/mL with spectinomycin.

As to “Neisseria gonorrhoeae isolate 61 (blaTEM plasmid: no, gyrA: Phe91, Gly95, mtrR promoter: -35delA, parC: Arg87, Glu91, penA: ins345Asp, ponA: Pro421, porB: wild type, rpsJ: Met57, tetM plasmid: no)”, the MIC with tetracycline was 0.5 µg/mL; with benzylpenicillin, 0.25 µg/mL; with ceftriaxone, not above 0.002 µg/mL; with azithromycin, 0.03 µg/mL; with spectinomycin it was 16 µg/mL.

Take “Neisseria gonorrhoeae isolate 381 (blaTEM plasmid: no, gyrA: Phe91, Asn 95, mtrR promoter: wild type, parC: Arg 87, Glu91, penA: ins345Asp, ponA: Pro421, porB: Asp120, Ala121, rpsJ: Met57, tetM plasmid: no)”: the MIC was 0.5 µg/mL with tetracycline; 0.25 µg/mL with benzylpenicillin; not above 0.002 µg/mL in the assay with ceftriaxone; 0.06 µg/mL with azithromycin; 32 µg/mL with spectinomycin.

Regarding “Neisseria gonorrhoeae isolate 276 (blaTEM plasmid: no, gyrA: Thr91, Gly95, mtrR promoter: wild type, parC: wild type, penA: ins345Asp, ponA: Pro421, porB: wild type, rpsJ: Met57, tetM plasmid: no)”, the MIC was 0.5 µg/mL with tetracycline; 0.06 µg/mL with benzylpenicillin; not above 0.002 µg/mL in the assay with ceftriaxone; 0.06 µg/mL with azithromycin; 16 µg/mL with spectinomycin.

For “Neisseria gonorrhoeae isolate 222 (blaTEM plasmid: no, gyrA: wild type, mtrR promoter: wild type, parC: wild type, penA: ins345Asp, ponA: wild type, porB: wild type, rpsJ: Met57, tetM plasmid: no)”, the MIC was determined as 0.5 µg/mL with tetracycline; 0.5 µg/mL with benzylpenicillin; 0.008 µg/mL in the assay with ceftriaxone; 0.12 µg/mL with azithromycin; 16 µg/mL with spectinomycin.

As to “Neisseria gonorrhoeae isolate 184 (blaTEM plasmid: no, gyrA: wild type, mtrR promoter: wild type, parC: wild type, penA: ins345Asp, ponA: wild type, porB: wild type, rpsJ: wild type, tetM plasmid: no)”, the MIC with tetracycline was 0.06 µg/mL; in the assay with benzylpenicillin, 0.03 µg/mL; with ceftriaxone, 0.008 µg/mL; with azithromycin, 0.12 µg/mL; with spectinomycin it was 16 µg/mL.

“Neisseria gonorrhoeae isolate 49 (blaTEM plasmid: no, gyrA: wild type, mtrR promoter: wild type, parC: wild type, penA: wild type, ponA: wild type, porB: wild type, rpsJ: wild type, tetM plasmid: no)”: the MIC was 0.12 µg/mL in the assay with tetracycline; not above 0.015 µg/mL with benzylpenicillin; not above 0.002 µg/mL in the assay with ceftriaxone; 0.12 µg/mL with azithromycin; 16 µg/mL in the assay with spectinomycin.

Consider “Neisseria gonorrhoeae isolate 120 (blaTEM plasmid: no, gyrA: Phe91, Asn95, mtrR promoter: -35delA, parC: Ser87, Gly91, penA: ins345Asp, ponA: Pro421, porB: wild type, rpsJ: Met57, tetM plasmid: no)”, for which the MIC is 0.12 µg/mL in the assay with tetracycline; 0.03 µg/mL with benzylpenicillin; not above 0.002 µg/mL with ceftriaxone; 0.015 µg/mL with azithromycin; 16 µg/mL with spectinomycin.

As for “Neisseria gonorrhoeae isolate 395 (blaTEM plasmid: no, gyrA: Thr 91, Asp95, mtrR promoter: wild type, parC: wild type, penA: wild type, ponA: wild type, porB: wild type, rpsJ: wild type, tetM plasmid: no)”, the MIC in the assay with tetracycline worked out at 0.5 µg/mL; with benzylpenicillin, 0.12 µg/mL; in the assay with ceftriaxone it was 0.004 µg/mL; in the assay with azithromycin, 0.12 µg/mL; with spectinomycin it was 16 µg/mL.

Consider “Neisseria gonorrhoeae isolate 433 (blaTEM plasmid: no, gyrA: Phe91, Asn95, mtrR promoter: wild type, parC: wild type, penA: ins345Asp, ponA: Pro421, porB: Asp120, Gly121, rpsJ: Met57, tetM plasmid: no)”, for which the MIC with tetracycline came out at 0.5 µg/mL; with benzylpenicillin, 0.12 µg/mL; with ceftriaxone it was 0.008 µg/mL; with azithromycin, 0.12 µg/mL; in the assay with spectinomycin, 8 µg/mL.

Take “Neisseria gonorrhoeae isolate 320 (blaTEM plasmid: no, gyrA: wild type, mtrR promoter: wild type, parC: wild type, penA: ins345Asp, ponA: wild type, porB: wild type, rpsJ: Met57, tetM plasmid: no)”: the MIC with tetracycline was 0.5 µg/mL; with benzylpenicillin, 0.03 µg/mL; in the assay with ceftriaxone it was not above 0.002 µg/mL; with azithromycin, 0.06 µg/mL; with spectinomycin, 16 µg/mL.

Take “Neisseria gonorrhoeae isolate 432 (blaTEM plasmid: no, gyrA: Thr91, Gly95, mtrR promoter: wild type, parC: wild type, penA: ins345Asp, ponA: wild type, porB: wild type, rpsJ: wild type, tetM plasmid: no)”: the MIC with tetracycline came to 0.5 µg/mL; with benzylpenicillin, 0.03 µg/mL; in the assay with ceftriaxone it was 0.004 µg/mL; with azithromycin, 0.12 µg/mL; with spectinomycin it was 4 µg/mL.

With “Neisseria gonorrhoeae isolate 9 (blaTEM plasmid: no, gyrA: wild type, mtrR promoter: wild type, parC: wild type, penA: wild type, ponA: wild type, porB: wild type, rpsJ: wild type, tetM plasmid: no)”, the MIC in the assay with tetracycline worked out at 1 µg/mL; in the assay with benzylpenicillin, 0.12 µg/mL; in the assay with ceftriaxone, 0.004 µg/mL; with azithromycin, 0.12 µg/mL; with spectinomycin, 16 µg/mL.

For the origin of these results see the supplement of paper PMC6657886.
